Assay results published in the antibiotic and cytotoxicity screens of Wong et al. (2023).
The list shows a part of the results.

What was measured:
HSkMC = human skeletal muscle cells; assay: cytotoxicity call (relative viability < 0.9); conditions: 10 µM
HepG2 = assay: cytotoxicity call (relative viability < 0.9); conditions: 10 µM
S. aureus RN4220 = assay: growth inhibition call (relative growth <= 0.2); conditions: 50 µM

SMILES | cytotoxicity call (HSkMC) | cytotoxicity call (HepG2) | growth inhibition call (S. aureus RN4220)
COCCOC(=O)N1C(=O)[C@@]2(c3cc(C#Cc4ccc(OC)cc4)ccc31)[C@H](C(=O)N1CCc3cc(OC)c(OC)cc3C1)[C@H]1C(=O)O[C@H](c3ccccc3)[C@H](c3ccccc3)N1[C@@H]2c1ccc(OCCO)cc1 | inactive | inactive | inactive
COc1cccc(NC(=O)N(C)C[C@H]2OCc3ccccc3-c3c(n(C)c4ccccc34)C(=O)N([C@H](C)CO)C[C@H]2C)c1 | inactive | inactive | inactive
C[C@@H]1CCCCO[C@@H](CN(C)C(=O)C2CCCCC2)[C@H](C)CN([C@H](C)CO)C(=O)c2cc(NC(=O)Cc3ccccc3)ccc2O1 | inactive | inactive | inactive
C[C@H](CO)N1C[C@H](C)[C@H](CN(C)S(=O)(=O)c2ccc(F)cc2)Oc2ncc(C#CC(C)(C)O)cc2C1=O | inactive | inactive | inactive
Cc1ncc([N+](=O)[O-])n1C[C@@H](O)CCl | inactive | inactive | inactive
COc1ccc(S(=O)(=O)N(C)C[C@@H]2Oc3c(NS(C)(=O)=O)cccc3C(=O)N([C@H](C)CO)C[C@H]2C)cc1 | inactive | inactive | inactive
O=C(C[C@H]1C[C@@H]2c3cc(NC(=O)c4ccc5c(c4)OCO5)ccc3O[C@@H]2[C@@H](CO)O1)NCc1ccccn1 | inactive | inactive | inactive
C[C@@H]1CN([C@H](C)CO)C(=O)c2cccc(NC(=O)Nc3ccc(C(F)(F)F)cc3)c2O[C@H]1CN(C)S(C)(=O)=O | inactive | inactive | inactive
C[C@H]1CN([C@@H](C)CO)C(=O)c2c(c3ccccc3n2C)-c2ccccc2CO[C@H]1CN(C)C(=O)c1ccc(F)cc1 | inactive | inactive | inactive
CC(C)NC(=O)Nc1ccc2c(c1)C(=O)N([C@H](C)CO)C[C@H](C)[C@H](CN(C)C(=O)C1CCCCC1)OCCCC[C@@H](C)O2 | inactive | inactive | inactive
C[C@@H]1CCCCO[C@@H](CN(C)Cc2ccc3c(c2)OCO3)[C@H](C)CN([C@H](C)CO)C(=O)c2cc(NC(=O)Nc3ccc(F)cc3)ccc2O1 | inactive | active | inactive
C[C@H]1CN([C@@H](C)CO)C(=O)Cc2cc(NS(=O)(=O)c3ccc(Cl)cc3)ccc2O[C@H]1CN(C)Cc1ccc(Cl)c(Cl)c1 | active | active | inactive
COc1ccc(-c2cc(=O)c3ccccc3o2)cc1 | inactive | inactive | inactive
CC=Cc1ccc2n(c1=O)C[C@H]1[C@H](CO)[C@@H](C(=O)NCCC)[C@@H]2N1S(=O)(=O)c1cn(C)cn1 | inactive | inactive | inactive
Cc1ccc(S(=O)(=O)N(C)C[C@@H]2Oc3c(NS(=O)(=O)c4cn(C)cn4)cccc3C(=O)N([C@H](C)CO)C[C@H]2C)cc1 | inactive | inactive | inactive
Nc1ncc2[nH]cnc2n1 | inactive | inactive | inactive
CCc1nc2ccc(C(=O)Nc3cccc(OCC(=O)N(C)C)c3)cn2c1N(CCN(C)C)CC1CC1 | inactive | inactive | inactive
Cc1ccc(S(=O)(=O)N2C[C@H](O)COC[C@@H]3O[C@H](CC(=O)NCc4ccc5c(c4)OCO5)CC[C@H]32)cc1 | inactive | active | inactive
C[C@@H]1CCCCO[C@@H](CN(C)Cc2ccc(Cl)c(Cl)c2)[C@@H](C)CN([C@@H](C)CO)C(=O)c2cc(NS(C)(=O)=O)ccc2O1 | inactive | inactive | inactive
C[C@H](CO)N1C[C@H](C)[C@H](CN(C)C(=O)Nc2ccc(C(F)(F)F)cc2)Oc2ccc(NC(=O)Nc3ccc4c(c3)OCO4)cc2CC1=O | inactive | inactive | inactive
Cn1ccc(C(=O)O)cc1=O | inactive | inactive | inactive
C[C@@H]1CN([C@@H](C)CO)C(=O)Cc2cc(NC(=O)c3ccncc3)ccc2O[C@H]1CN(C)C(=O)Nc1ccc2c(c1)OCO2 | inactive | inactive | inactive
C[C@H](CO)N1C[C@H](C)[C@H](CN(C)S(C)(=O)=O)OCCCC[C@H](C)Oc2ccc(NS(=O)(=O)c3cn(C)cn3)cc2C1=O | inactive | inactive | inactive
C[C@@H]1CCCCO[C@H](CN(C)C(=O)CCCN(C)C)[C@H](C)CN([C@@H](C)CO)C(=O)c2cc(N(C)C)ccc2O1 | inactive | inactive | inactive
C[C@@H]1CCCCO[C@H](CN(C)CC2CC2)[C@H](C)CN([C@@H](C)CO)C(=O)c2cc(NC(=O)Nc3ccccc3)ccc2O1 | inactive | inactive | inactive
